These results are taken from ChEMBL document CHEMBL4888484, “Replenishing the malaria drug discovery pipeline: Screening and hit evaluation of the MMV Hit Generation Library 1 (HGL1) against asexual blood stage Plasmodium falciparum ,using a nano luciferase reporter read-out” (2022).

The structures appear in SMILES notation. Out of some 150,000 compounds screened, about 540 (0.36%) showed an effect of 50% or more. This is one part of the list.

In this experiment the test system is Plasmodium falciparum. As to the kind of experiment: Primary screen in NF54 nanoGlo assay, in single point, at 2uM, 72h; a lower Z score goes with more inhibition. Format: functional, Erythrocyte. Conditions: timepoint 72 hour.
What is called % Inhibition is the relative decrease from the control value, in per cent. Consider `COc1cccc(S(=O)(=O)N2[C@@H](CO)CN(C)C(=O)[C@@H]2C)c1`, for which the “% Inhibition” value was -6% and the Z score came to 0.86.

Turning to `C[C@H]1Cc2ccccc2N1CCC(=O)Nc1ccccc1`, the “% Inhibition” value is 2% and the Z score is -0.31.

As to `O=C(NC1CCOC1C1CC1)c1ccc2[nH]nnc2n1` (configuration not stated), the “% Inhibition” value worked out at 4% and the Z score is -0.36.

As to `CCc1nnc(CN(C)c2ccc3cc[nH]c3n2)o1`, the “% Inhibition” value was 0% and the Z score amounted to 0.02.

For the molecule `Cc1nc(COc2ccccc2C(=O)Nc2ccc3ccccc3c2)cs1`, the “% Inhibition” value is reported as -29% and the Z score is reported as 3.41.

Regarding `O=C(Nc1cc(Cl)cc(C(=O)c2ccccc2)c1Cl)c1cc(Br)cc(Br)c1O`, the “% Inhibition” value is on record as 3% and the Z score is reported as -0.45.

In the case of `O=S1(=O)CC[C@H](N(C2CC2)S(=O)(=O)c2ccccc2F)C1`, the “% Inhibition” value amounted to 1% and the Z score was -0.11.

Take `COc1cc(-c2ccc(C(=O)N3CC[C@H]4CC[C@@H](C3)N4C)cc2)nc(N)n1`: the “% Inhibition” value is recorded as -1% and the Z score is reported as 0.14.

With `O=C(NC1CC1)c1ccc2c(=O)n(-c3ccccc3)c(N3CCCCC3)nc2c1`, the “% Inhibition” value is -13% and the Z score turned out to be 2.36.

In the case of `CCOc1ccc([C@H](C)NC2CCN(OC)CC2)cc1`, the “% Inhibition” value is given as -15% and the Z score is reported as 2.31.

Regarding `C[C@H](NC(=O)COCC(N)=O)c1nc(-c2ccccn2)no1`, the “% Inhibition” value is recorded as -14% and the Z score turned out to be 1.99.

Take `COC(=O)c1cc(NC(=O)Cc2ccccc2)c2oc(Cc3ccccc3)nc2c1`: the “% Inhibition” value is given as 9% and the Z score was -1.22.

As to `CCc1ccc([C@@H]2CCCCCN2CC(=O)NC2CCOCC2)o1`, the “% Inhibition” value is recorded as -18% and the Z score is recorded as 1.66.

Consider `COC(=O)Nc1cccc(C(=O)N2CCC3CN(C(=O)OC(C)(C)C)CC3C2)c1` (configuration not stated), for which the “% Inhibition” value was -7% and the Z score stood at 0.68.

`CN(CCOC(=O)c1ccc(F)cc1)C(C)(C)C`: the “% Inhibition” value is reported as 0% and the Z score was 0.01.

`CCCCNC(=O)CN1C(=O)CCn2nc(-c3ccc(C)cc3)cc21`: the “% Inhibition” value was -6% and the Z score was 1.21.

On to `O=C(c1nc2ccccc2[nH]c1=O)N1CCO[C@H](c2cccnc2)C1`, for which the “% Inhibition” value came to 15% and the Z score is -1.9.

Consider `O=C1CC[C@@H](C(=O)NCCc2ccc(O)cc2)N1`, for which the “% Inhibition” value was determined as 2% and the Z score is reported as -0.22.

Regarding `COc1cc(NC(=O)c2csc(-c3cn(C)c4ncccc34)n2)cc(OC)c1`, the “% Inhibition” value was found to be 7% and the Z score is reported as -1.29.

Turning to `COc1ccccc1Oc1nc(N2CCC(C)CC2)nc2c1CN(Cc1ccc(F)cc1)CC2`, the “% Inhibition” value turned out to be 11% and the Z score is -1.47.

In the case of `CCN(C)c1nc(N2CCN(c3ccccc3)CC2)nc2c1CN(S(=O)(=O)c1cccc(C)c1)CC2`, the “% Inhibition” value is recorded as -11% and the Z score was 1.45.

On to `CNS(=O)(=O)c1cc(-c2nc(C3CN4CCCC4CO3)no2)c(C)o1` (configuration not stated), for which the “% Inhibition” value is on record as -8% and the Z score stood at 1.14.

For the molecule `CC(C)(C)OC(=O)NCc1nc2ccccn2c1Cl`, the “% Inhibition” value is listed as -3% and the Z score is given as 0.54.

Take `CC1=CCN(C(=O)Nc2ccnn2[C@@H](C)C(C)C)CC1`: the “% Inhibition” value is on record as -8% and the Z score is on record as 0.83.

On to `COc1ccccc1CN1C[C@@H](c2nc(C)no2)CCC1=O`, for which the “% Inhibition” value is -3% and the Z score amounted to 0.27.

In the case of `CC[C@H](C)N1CC(=O)N(c2ccns2)C1=O`, the “% Inhibition” value is recorded as -14% and the Z score is listed as 2.59.

Turning to `CCOc1cccc(CCNS(=O)(=O)CCCC#N)n1`, the “% Inhibition” value was -7% and the Z score was 0.58.

In the case of `CCc1nn(-c2ccc(OC)cc2)c(Oc2ccccc2F)c1CCC(=O)NCC1CC1`, the “% Inhibition” value was 9% and the Z score is -0.93.

As for `Cc1nn(C)c(C)c1NC(=O)Nc1c(Cl)cc(C)c2ncccc12`, the “% Inhibition” value was 3% and the Z score is listed as -0.59.

For `Cc1ccc(C(=O)N2Cc3c(-c4nc(C5CCOCC5)no4)nn(C)c3C2)cc1F`, the “% Inhibition” value came to 4% and the Z score is reported as -0.66.

As to `Cc1nc2c(C#N)cnn2c(O)c1CC(=O)N[C@@H](C)C(C)C`, the “% Inhibition” value is given as -4% and the Z score is 0.64.

Take `O=C(O)[C@@H]1CN(c2nc(-c3ccccn3)nc3sccc23)CCO1`: the “% Inhibition” value is recorded as -16% and the Z score came to 1.65.

As to `COC1(CNC(=O)C2C(C)OC(C)C2C)CCC(C(F)F)CC1` (configuration not stated), the “% Inhibition” value is -5% and the Z score came to 0.67.

Take `Cc1nn(C(C)C)c(C)c1CNC[C@@H]1C[C@H](CO)N(C)[C@@H]1c1ccccc1F`: the “% Inhibition” value is -3% and the Z score is recorded as 0.4.

In the case of `Cc1cc(NC(=O)N[C@H]2CC3(CCCC3)Oc3ccccc32)n(C)n1`, the “% Inhibition” value is -5% and the Z score is on record as 0.88.

For `Cc1nc(CCNc2nnc(C(C)(C)C)s2)sc1C`, the “% Inhibition” value came out at 10% and the Z score is -1.27.

Take `Cc1ccccc1CN1CCCn2nc(C(=O)N(C)CC(=O)N3CCOCC3)cc2C1=O`: the “% Inhibition” value is -4% and the Z score was 0.62.

With `Cc1c[nH]c(=O)c(CNC(=O)N[C@@H](C)c2cncc(F)c2)c1`, the “% Inhibition” value is -12% and the Z score came to 1.25.

For the molecule `CCCc1cc(=O)n2nc(Cc3ccccc3)c(-c3cccc4ccccc34)c2[nH]1`, the “% Inhibition” value was -17% and the Z score is given as 3.23.

As to `O=C(NCc1cn(-c2ccncc2)nn1)c1ccco1`, the “% Inhibition” value is 17% and the Z score is given as -2.2.

For the molecule `Cc1oc2ncnc(NC(=O)C3CC3c3ccc4c(c3)OCCO4)c2c1C` (configuration not stated), the “% Inhibition” value is -14% and the Z score worked out at 2.3.
